# According to the supplement of paper PMC12889115:
# This is one part of the list. No stated cut-off is given here; in the data, active = 25% or less and inactive = the rest. Most values come without repeats; read them as rough.
# Test system: Salmonella enterica serovar Typhimurium SL1344
# Assay: bacterial growth OD600 after 18 h in MHB with 0.5 µg/mL polymyxin B; higher = more bacterial growth (less inhibition)
# Settings: 25 µM; polymyxin B 0.5 µg/mL; system: broth
# Procedure: (§1)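 Secondary screen of the 553 primary hits at 25 µM. (i) S. Typhimurium SL1344 grown in Mueller-Hinton broth with 0.5 µg/mL polymyxin B, OD600 read after 18 h. (ii) SAFIRE assay: RAW 264.7 macrophages infected with S. Typhimurium sifB::gfp (MOI 30); compound added 2 h post-infection; cells fixed at 18 h; GFP-positive pixel fraction per macrophage imaged by confocal microscopy and expressed as % of DMSO control.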
# 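Wherever bacterial growth OD600 after 18 h in MHB with 0.5 µg/mL polymyxin B is given: polymyxin B level opens the outer membrane while sparing the inner membrane, with novobiocin wells as reference growth inhibitor.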
# 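Wherever intramacrophage bacterial GFP load (SAFIRE), percent of DMSO control is given: compounds tested were the hits of an earlier 50 µM broth growth screen of a drug-like diversity library run with polymyxin B.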
row,SMILES,bacterial growth OD600
1,Cc1ccccc1-n1ncc2c1CC(C)(C)CC2NC(=O)CC(F)(F)F (configuration not stated),0.193
2,Cc1cc(-c2cc(F)cc3c2OC(CNC(=O)c2ccoc2)C3)ccc1F (configuration not stated),-0.004
3,Cc1nonc1CN(C)C(=O)C1(N2CCCCC2)Cc2ccccc2C1,0.004
4,CN(C(=O)c1cccs1)C(Cc1ccccc1)C1CCN(C(=O)c2ccc(-n3cccn3)cc2)CC1 (configuration not stated),0.004
5,O=C(NC(c1ccccn1)C(F)(F)F)c1cn(C2CCCCC2)nn1 (configuration not stated),0.62
6,O=C(NCC1CC2C=CC1C21CC1)c1cc(Cc2ccc(F)cc2)no1 (configuration not stated),-0.005
7,CN1C(=O)CC(CC(=O)N2CCCC(C(=O)c3nccn3C)C2)(c2ccc(-c3ccccc3)cc2)C1=O (configuration not stated),-0.013
8,Cc1cnccc1CN(C)C(=O)CC(c1cccc(O)c1)c1cccc(Cl)c1 (configuration not stated),0.002
9,COCc1ccc(C(=O)N2CCc3c([nH]c4ccccc34)C2c2cccc(C)n2)o1 (configuration not stated),0.003

# Test system: Salmonella enterica serovar Typhimurium SL1344
# Assay: intramacrophage bacterial GFP load (SAFIRE), percent of DMSO control (% of DMSO); higher = more intracellular bacteria (less inhibition)
# Settings: 25 µM; system: infected RAW 264.7 macrophages
# Procedure: as §1
row,SMILES,intramacrophage bacterial GFP load
1,CCc1ccc(CN(C)c2nncc(-c3cccc(F)c3)n2)cc1,inactive: 140
2,O=C(CCN1Cc2ccccc2OC(c2ccccc2)C1)NCc1cc(-c2ccccc2)[nH]n1 (configuration not stated),inactive: 84
3,CN(C(=O)CC1(c2ccccc2Cl)CC(=O)N(C2CCCC2)C1=O)C(C1CC1)C1CC1 (configuration not stated),inactive: 84.5
4,CCOC(=O)C1(CCCc2ccccc2)CCN(C(=O)c2ccc(OC)o2)CC1,inactive: 35.7
5,O=C(CC1(c2ccccc2)CC(=O)N(Cc2ccncc2)C1=O)N(Cc1ccccc1)CC1CC1 (configuration not stated),inactive: 95.2
6,Cc1c(C(=O)NCCCc2ccncc2)sc2ncnc(N3CCCCCCC3)c12,active: 23.4
7,COCCC(=O)Nc1ccc2c(c1)CN(C(=O)c1cc3c(s1)CCCCC3)CC2,inactive: 131
8,CC(C)S(=O)(=O)c1ncc(CN(C)Cc2cccs2)n1CCc1ccccc1,inactive: 42.6
9,COc1ccc2c(c1)NC(=O)C2CC(=O)N(Cc1ccncc1)Cc1cccc(OCCc2ccc(F)cc2)c1 (configuration not stated),inactive: 62.3
10,Cc1ccccc1CN1C[C@@H]2C[C@@H](c3cc(CC(C)C)[nH]n3)N3CCC[C@@]23C1=O,active: 8.72
11,Cc1nc(N2CCC(C(=O)N(C)Cc3ccc(C(F)(F)F)cc3)CC2)nc2ccccc12,inactive: 53.3
12,Cc1ccc(CN2CCCC2C(=O)Nc2ccccc2Oc2cccnc2)cc1 (configuration not stated),inactive: 40.8
13,O=C(NCC1CC2C=CC1C21CC1)c1cc(Cc2ccc(F)cc2)no1 (configuration not stated),inactive: 101
